# Results taken from publication PMC4081100.
# This is a selection; strong and weak results do not stand in their true shares. For some of these results: At the low end of the ranking the order means little. Some of the results follow. For some of these results: The exact form of the protein is not confirmed.
# Key:
# Assay in all cases: universal protein binding microarray (PBM)
# Conditions in all cases: transcription factors of Arabidopsis thaliana; high values mean tight binding; most listed sequences are background and not binding sites; double strand, one strand shown
# [1] = target: T1, GST-ANAC092(1-176) (UniProt Q9FKA0)
# T1 sequence: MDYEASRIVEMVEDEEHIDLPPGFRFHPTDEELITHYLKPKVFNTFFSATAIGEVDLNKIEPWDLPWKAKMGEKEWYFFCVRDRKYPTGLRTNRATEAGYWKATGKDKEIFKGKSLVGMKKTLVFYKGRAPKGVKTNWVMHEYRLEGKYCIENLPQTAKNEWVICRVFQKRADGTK
# [2] = target: GST-NTL6(1-168) (UniProt Q9SCK6)
# UniProt Q9SCK6, sequence (Q9SCK6 1-168): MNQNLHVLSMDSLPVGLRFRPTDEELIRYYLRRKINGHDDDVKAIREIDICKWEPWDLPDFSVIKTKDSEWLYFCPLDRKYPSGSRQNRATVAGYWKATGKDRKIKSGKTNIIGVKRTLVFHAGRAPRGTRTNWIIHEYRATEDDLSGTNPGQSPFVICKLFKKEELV
# [3] = target: T2, GST-ANAC019 NAC domain (UniProt Q9C932)
# T2 sequence: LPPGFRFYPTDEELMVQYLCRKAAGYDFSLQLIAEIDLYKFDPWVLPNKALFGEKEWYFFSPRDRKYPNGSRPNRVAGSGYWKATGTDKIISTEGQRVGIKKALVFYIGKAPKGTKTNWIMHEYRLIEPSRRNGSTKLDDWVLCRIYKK
# [4] = target: T3, GST-ANAC055(1-171) (UniProt Q9LDY8)
# T3 sequence: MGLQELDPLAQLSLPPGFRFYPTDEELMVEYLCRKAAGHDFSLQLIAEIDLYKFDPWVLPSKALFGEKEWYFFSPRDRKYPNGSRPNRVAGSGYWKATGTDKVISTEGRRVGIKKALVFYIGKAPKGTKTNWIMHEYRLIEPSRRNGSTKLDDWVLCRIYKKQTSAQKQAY
# [5] = target: T4, GST-ATAF1 NAC domain (UniProt Q39013)
# T4 sequence: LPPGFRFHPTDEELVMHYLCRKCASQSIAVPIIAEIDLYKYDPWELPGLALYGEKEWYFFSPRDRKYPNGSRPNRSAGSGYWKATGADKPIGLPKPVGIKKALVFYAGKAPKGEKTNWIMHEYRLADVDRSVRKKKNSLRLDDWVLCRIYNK
# [6] = target: T5, GST-ANAC092(1-285) full length (UniProt Q9FKA0)
# T5 sequence: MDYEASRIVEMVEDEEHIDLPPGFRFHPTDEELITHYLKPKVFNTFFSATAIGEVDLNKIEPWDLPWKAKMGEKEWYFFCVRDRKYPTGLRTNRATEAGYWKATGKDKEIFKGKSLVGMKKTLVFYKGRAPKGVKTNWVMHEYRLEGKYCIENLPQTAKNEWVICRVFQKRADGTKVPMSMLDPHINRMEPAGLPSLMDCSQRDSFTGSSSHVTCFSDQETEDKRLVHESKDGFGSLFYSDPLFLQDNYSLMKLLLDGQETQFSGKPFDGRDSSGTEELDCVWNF
# [7] = target: T6, GST-NAP(1-166) (UniProt O49255)
# T6 sequence: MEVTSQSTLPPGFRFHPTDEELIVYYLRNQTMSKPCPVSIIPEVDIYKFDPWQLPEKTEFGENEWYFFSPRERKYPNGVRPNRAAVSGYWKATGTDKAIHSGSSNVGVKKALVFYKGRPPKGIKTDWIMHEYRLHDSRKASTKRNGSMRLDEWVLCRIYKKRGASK
# [8] = target: T7, GST-NST2(1-184) (UniProt Q9M274)
# T7 sequence: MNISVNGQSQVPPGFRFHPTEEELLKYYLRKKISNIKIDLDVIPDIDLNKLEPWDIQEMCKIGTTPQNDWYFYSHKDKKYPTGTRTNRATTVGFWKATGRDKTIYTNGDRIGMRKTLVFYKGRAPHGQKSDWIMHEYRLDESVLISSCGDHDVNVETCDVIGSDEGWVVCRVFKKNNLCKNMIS
# [9] = target: T8, GST-NTL8 NAC domain (UniProt Q9XIN7)
# T8 sequence: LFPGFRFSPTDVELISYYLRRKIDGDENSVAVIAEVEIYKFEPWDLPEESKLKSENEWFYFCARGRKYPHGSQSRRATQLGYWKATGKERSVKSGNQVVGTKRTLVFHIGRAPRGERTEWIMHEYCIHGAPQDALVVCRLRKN
# [10] = target: T9, GST-SND1(1-203) (UniProt Q9LPI7)
# T9 sequence: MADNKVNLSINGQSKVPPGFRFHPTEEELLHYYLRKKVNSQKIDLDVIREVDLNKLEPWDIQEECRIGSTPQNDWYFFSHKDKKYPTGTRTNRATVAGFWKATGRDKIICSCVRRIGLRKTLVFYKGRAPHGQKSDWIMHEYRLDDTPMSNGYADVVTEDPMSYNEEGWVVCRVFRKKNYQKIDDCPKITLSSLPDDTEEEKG
# [11] = target: T10, GST-VND3 NAC domain (UniProt Q9FH59)
# T10 sequence: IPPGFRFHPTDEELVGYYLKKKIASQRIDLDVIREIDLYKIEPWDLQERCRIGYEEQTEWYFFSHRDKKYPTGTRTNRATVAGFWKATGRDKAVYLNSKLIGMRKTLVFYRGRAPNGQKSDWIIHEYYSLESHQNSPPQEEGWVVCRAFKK
# [12] = target: T11, GST-VND7 NAC domain (UniProt Q9C8W9)
# T11 sequence: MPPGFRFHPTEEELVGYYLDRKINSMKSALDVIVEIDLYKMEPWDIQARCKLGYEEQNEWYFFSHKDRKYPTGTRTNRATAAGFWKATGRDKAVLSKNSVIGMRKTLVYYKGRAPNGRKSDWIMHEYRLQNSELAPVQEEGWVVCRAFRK
# [13] = target: T12, GST-VOZ2 (Arabidopsis thaliana) (UniProt Q9SLB9)
# T12 sequence: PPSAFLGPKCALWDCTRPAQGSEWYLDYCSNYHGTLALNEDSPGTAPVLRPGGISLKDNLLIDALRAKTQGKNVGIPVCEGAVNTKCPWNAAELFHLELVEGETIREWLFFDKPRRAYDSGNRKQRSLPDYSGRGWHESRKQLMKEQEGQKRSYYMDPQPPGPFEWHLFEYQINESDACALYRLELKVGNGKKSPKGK
# [14] = target: GST-WRKY1(266-371) (UniProt Q9SI37)
Sequence,binding signal [1] [E-score],binding signal [2] [E-score],binding signal [3] [E-score],binding signal [4] [E-score],binding signal [5] [E-score],binding signal [6] [E-score],binding signal [7] [E-score],binding signal [8] [E-score],binding signal [9] [E-score],binding signal [10] [E-score],binding signal [11] [E-score],binding signal [12] [E-score],binding signal [13] [E-score],binding signal [14] [E-score]
GACCGTCA,-0.0207,-0.0953,0.00441,-0.115,-0.161,-0.135,0.0503,-0.0906,-0.0278,-0.103,-0.0567,0.0207,-0.0505,0.407
GAGGTCAA,-0.0364,-7e-05,-0.0839,0.0235,-0.00449,0.00153,-0.0918,-0.0437,0.0439,-0.0172,-0.0606,0.0285,-0.0447,0.485
AGTCGGTC,-0.0812,-0.0934,-0.0594,-0.231,-0.21,-0.0561,-0.0599,-0.113,-0.0237,-0.0962,-0.121,-0.0858,-0.153,0.403
CAGTCAGC,0.0122,-0.174,-0.0407,-0.111,-0.095,-0.117,-0.112,-0.0963,-0.115,-0.101,-0.148,-0.129,-0.0599,0.406
ATGAGTCA,-0.211,0.0338,-0.0568,-0.0615,-0.0441,-0.0141,-0.134,-0.0594,-0.0704,-0.0636,-0.00916,0.0214,-0.0036,0.427
GCCTTGAC,-0.0111,-0.138,0.0054,-0.103,-0.121,-0.0429,-0.163,-0.0948,-0.0469,-0.0649,-0.117,-0.102,-0.106,0.457
TGACCCCA,-0.0806,-0.0433,0.0651,-0.146,-0.0934,-0.0864,-0.0249,0.0103,0.0351,-0.135,-0.188,0.00782,-0.0154,0.428
AGTCAGAG,-0.0419,-0.0523,-0.0563,-0.186,-0.101,-0.0165,-0.0701,-0.0999,-0.0329,-0.00899,-0.126,-0.106,-0.121,0.44
GCTGGTCA,-0.119,-0.154,0.029,-0.0602,-0.11,-0.121,-0.19,-0.0573,-0.0139,-0.0978,-0.144,-0.00385,-0.0284,0.452
TCGAGTCA,-0.244,-0.127,-0.205,-0.194,-0.179,-0.197,0.00811,-0.177,-0.101,-0.14,-0.0699,-0.155,-0.0618,0.417
GGGGGGAA,0.0206,-0.135,0.0481,-0.207,-0.107,-0.0709,-0.231,-0.285,,-0.0629,-0.212,0.0325,-0.127,-0.125
AGTCAGCC,0.0127,-0.0886,-0.0171,-0.162,-0.0659,-0.0636,-0.138,-0.109,0.00365,-0.0851,-0.0158,-0.0591,-0.0972,0.415
ACCTTGAC,-0.142,-0.0752,0.013,-0.0995,-0.102,0.0121,-0.0564,-0.107,-0.0557,-0.0877,-0.0812,-0.0943,-0.109,0.472
CTGACCAG,-0.0775,-0.132,-0.00213,-0.197,-0.138,-0.092,-0.0821,-0.176,-0.0247,-0.0417,-0.13,-0.065,-0.0939,0.444
ATAGGTCA,-0.245,-0.0494,-0.0749,-0.0219,-0.0392,-0.0474,-0.0764,-0.0522,-0.126,-0.217,0.00536,-0.101,-0.0841,0.409
GAAGACCA,-0.00746,0.0358,,0.0169,-0.032,-0.0808,-0.0803,0.0268,-0.054,-0.0759,-0.035,0.00769,-0.0942,0.442
CGGTCAAC,0.00951,0.00336,0.00915,-0.0475,-0.012,-0.0218,0.118,-0.0121,-0.00537,-0.0556,-0.0761,-0.0616,0.00959,0.495
ACTCTGAC,-0.119,-0.114,0.0465,-0.145,-0.128,-0.141,0.00092,-0.125,-0.0228,-0.111,-0.0893,-0.0942,-0.109,0.437
CAGTTGAC,0.00432,-0.0477,0.135,,0.112,-0.113,0.0525,0.0574,-0.0966,-0.0327,-0.0214,0.0244,0.0545,0.477
CGGTTGAC,0.0351,-0.0804,0.023,-0.0773,-0.0196,0.00302,-0.0194,-0.0294,-0.0476,-0.027,-0.135,-0.0505,-0.0822,0.475
CCGGGTCA,-0.136,-0.311,-0.137,-0.339,-0.24,-0.242,-0.158,-0.224,-0.0494,-0.148,-0.297,-0.143,-0.075,0.443
CAGGTCAG,-0.0831,-0.143,-0.0327,-0.189,-0.141,-0.115,-0.0572,-0.132,0.0212,-0.0688,-0.059,-0.0886,0.00107,0.418
CAGTCAGA,-0.00222,-0.0908,0.0745,-0.133,-0.0973,0.0135,-0.0198,-0.0942,-0.0168,0.0438,-0.0943,-0.0368,-0.103,0.404
